The test system of the data set is CCRIS mutagenicity, Ames/micronucleus/aberration tests. As to the kind of experiment: CCRIS mutagenicity studies. The following applies: Test System: AMES SALMONELLA TYPHIMURIUM

SMILES strings stand for the structures. For part of its entries the source gives two or more results. This list holds those alone. How the calls were made is not given here. The source may hold further records. Results that share an entry are repeats (runs, samples, wells, individuals or studies). A tag in brackets gives the origin of a value. Letters hold for one entry only.

`O=CC(Cl)(Cl)Cl`: the mutagenic call (Strain/Indicator: TA100, Metabolic Activation: NONE, Method: PREINCUBATION) is “active; positive [study A] and inactive; negative [study B]”.

Regarding `O=C(O)C(Cl)Cl`, the mutagenic call (Strain/Indicator: TA98, Metabolic Activation: NONE, Method: PREINCUBATION) was “active; positive [study A] and inactive; negative [study B]”.

On to `Oc1c2c3c(ccc4ccc5cccc1c5c43)-c1ccccc1-2`, for which the mutagenic call (Strain/Indicator: TA100, Metabolic Activation: RAT, LIVER, S-9, AROCLOR 1254, Method: STANDARD PLATE) is “active; positive [sample A, 0 to 50 µg/plate] and inactive; negative [sample B, 0 to 50 µg/plate]”.

For the molecule `COC(=O)c1oc([N+](=O)[O-])c(Cl)c1Cl`, where the note is “Strain/Indicator: TA100, Metabolic Activation: NONE, Method: STANDARD PLATE”, the mutagenic call is “active; positive [sample A, 0 to 3 µg/plate] and inactive; negative [sample B, 10 to 100 µg/plate]”.

Values taken from PubChem BioAssay AID1259407 (Chemical Carcinogenesis Research Information System (CCRIS), 2018).
